# Experimental data: PubChem BioAssay AID1347165 (National Center for Advancing Translational Sciences (NCATS), 2019)
# About 5,700 (2.6%) of roughly 220,000 compounds were called active. Inconclusive results, whose numbers are uncertain, are shown with a selection of clear calls. The call rests on the fitted dose curve; in most records, active means well fitted inhibition curve with a large enough effect; inconclusive means small, poorly fitted or top-dose-only effect; inactive means no such curve, though single readings can be large or run the other way. Where the call is inconclusive, the potency comes from a doubtful curve fit.
# Molecular target: Lysine-specific demethylase 5B (Homo sapiens) (UniProt Q9UGL1)
# Assay: Primary screen for KDM5B Histone Demethylases FDH-coupled qHTS; further: nearly all actives have a fitted effect of over 70% in size; on activity change, negative = inhibition: 0% is about no effect
# Settings: FDH-coupled NADH fluorescence (FDH is formaldehyde dehydrogenase); activity change, negative = inhibition: at 57.7 µM (top of the series) unless noted
# How it was run: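 Measured: NADH fluorescence change, 30 min, RT. System: KDM5BΔAP 200 nM final, H3K4me3 peptide, α-KG, Fe(II), ascorbate, NAD⁺ plus FDH, pH 7.5 HEPES. Compounds: titrated, 10 min pre-incubation with enzyme.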
# Potency means the concentration at half of the fitted maximal effect; tags describe the fitted curve by direction and shape.
# UniProt Q9UGL1, sequence (Q9UGL1 whole entry, looked up): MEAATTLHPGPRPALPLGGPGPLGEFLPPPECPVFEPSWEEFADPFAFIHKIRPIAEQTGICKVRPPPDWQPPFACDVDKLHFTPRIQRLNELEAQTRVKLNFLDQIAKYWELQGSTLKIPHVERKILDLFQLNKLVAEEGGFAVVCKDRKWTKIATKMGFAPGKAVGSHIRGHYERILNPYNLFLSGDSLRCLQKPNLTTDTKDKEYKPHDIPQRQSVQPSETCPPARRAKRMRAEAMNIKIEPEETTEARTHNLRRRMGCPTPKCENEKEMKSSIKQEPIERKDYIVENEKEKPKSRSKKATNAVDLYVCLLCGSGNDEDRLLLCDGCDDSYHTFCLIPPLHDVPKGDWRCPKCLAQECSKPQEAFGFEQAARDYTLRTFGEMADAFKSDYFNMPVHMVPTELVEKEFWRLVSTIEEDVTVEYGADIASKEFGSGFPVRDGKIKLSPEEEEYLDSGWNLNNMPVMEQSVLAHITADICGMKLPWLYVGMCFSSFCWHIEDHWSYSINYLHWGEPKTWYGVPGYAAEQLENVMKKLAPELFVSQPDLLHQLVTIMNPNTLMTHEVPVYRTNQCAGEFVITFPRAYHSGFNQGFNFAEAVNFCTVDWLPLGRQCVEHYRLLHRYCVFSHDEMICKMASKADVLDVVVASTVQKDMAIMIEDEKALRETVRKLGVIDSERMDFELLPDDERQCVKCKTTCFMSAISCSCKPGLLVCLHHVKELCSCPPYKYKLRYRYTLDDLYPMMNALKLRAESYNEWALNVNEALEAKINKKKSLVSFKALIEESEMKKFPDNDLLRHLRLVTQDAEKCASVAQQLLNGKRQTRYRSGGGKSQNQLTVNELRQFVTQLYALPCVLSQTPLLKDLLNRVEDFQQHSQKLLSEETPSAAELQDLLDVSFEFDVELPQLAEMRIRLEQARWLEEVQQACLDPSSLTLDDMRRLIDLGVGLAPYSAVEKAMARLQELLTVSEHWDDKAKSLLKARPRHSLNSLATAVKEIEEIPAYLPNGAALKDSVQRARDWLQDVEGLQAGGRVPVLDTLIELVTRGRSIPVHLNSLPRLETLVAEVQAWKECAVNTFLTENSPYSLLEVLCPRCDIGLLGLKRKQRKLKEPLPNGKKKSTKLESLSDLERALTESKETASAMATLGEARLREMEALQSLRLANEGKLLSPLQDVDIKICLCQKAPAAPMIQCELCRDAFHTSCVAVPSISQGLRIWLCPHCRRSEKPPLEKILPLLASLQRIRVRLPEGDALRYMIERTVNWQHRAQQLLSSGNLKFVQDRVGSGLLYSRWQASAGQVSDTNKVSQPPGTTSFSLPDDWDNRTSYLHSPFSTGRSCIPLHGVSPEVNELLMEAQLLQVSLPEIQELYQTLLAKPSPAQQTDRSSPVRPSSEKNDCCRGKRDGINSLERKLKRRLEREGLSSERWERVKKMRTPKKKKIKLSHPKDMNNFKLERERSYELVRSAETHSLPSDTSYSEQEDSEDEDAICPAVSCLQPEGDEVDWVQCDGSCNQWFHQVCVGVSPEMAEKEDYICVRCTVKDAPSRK
Structure (SMILES),Potency,"activity change, negative = inhibition"
Cc1ccc2c(c1)c1c(c(=O)n(-c3ccccc3)c(=O)n1CC(=O)N1CCCC1)n2C,"inconclusive: 15.8 µM [inhibitor, partial curve, poor fit]",–
CC(C)(C)CC(=O)Nc1ccc(C(N)=O)c(Cl)c1,–,inactive: -11%
CN1C(=O)CC(=O)N(C)c2cc(S(=O)(=O)N(C)Cc3ccccc3)ccc21,"inconclusive: 20 µM [inhibitor, partial curve, poor fit]",–
O=C1CN(CC(=O)Nc2ccc(Cl)cc2)CCN1,–,inactive: 22.2%
Cc1ccccc1C(=O)Nc1ccccc1C(=O)OCc1cc(=O)n2ccsc2n1,"inconclusive: 11.2 µM [inhibitor, partial curve, poor fit]",–
COc1ccc2c(Cl)c(C(=O)OCC(=O)c3ccc4c(c3)NC(=O)CO4)sc2c1Cl,"inconclusive: 31.6 µM [inhibitor, partial curve, poor fit]",–
CC(C)C1CN(c2cncc(C(=O)N3CCCC3)n2)CCC(=O)N1CC1CC1 (stereo not given),active: 28.2 µM,–
CC(=O)N1CCC(Nc2nc(-c3cccnc3)nc3ccccc23)CC1,–,inactive: -19.2%
Cc1ccccc1-c1n[nH]c(=S)n1/N=C/C=C/c1ccco1,"inconclusive: 35.5 µM [inhibitor, partial curve, poor fit]",–
Cc1ccc(NC(=O)CCn2c(=O)c3cccn3c3ccccc32)c(Cl)c1,–,inconclusive: -33.7% [inhibitor]
COc1ccc(CCNC(=O)CCc2c(C)nc3c(c(C)nn3-c3ccc(C)c(C)c3)c2C)c(OC)c1OC,–,inconclusive: -31.5% [inhibitor]
CC(C)c1ccc(CCNC(=O)/C=C/c2cccs2)cc1,–,inactive: 16.3%
Cc1ccc(CN2CCCOCCNC(=O)CC2)s1,–,inactive: 3.55%
COc1ccc(NC(=S)Nc2cc(C)[nH]n2)cc1Cl,"inconclusive: 39.8 µM [inhibitor, single point]",–
Cc1nc2nc(NC(=O)c3cccc(Cl)c3)[nH]n2c(=O)c1Cc1ccccc1,"inconclusive: 25.1 µM [inhibitor, partial curve, poor fit]",–
CCn1nnc2cc(C(=O)Nc3cccc(Cl)c3)ccc21,"inconclusive: 17.8 µM [inhibitor, partial curve, poor fit]",–
CCOc1ccc(NC(=O)CSc2nccn2Cc2ccccc2OC)cc1,–,inactive: 11.5%
O=S(=O)(c1ccc(Br)cc1)c1nc(-c2ccco2)oc1SCc1ccccc1Cl,"inconclusive: 28.2 µM [inhibitor, partial curve, poor fit]",–
Cc1n[nH]c(C)c1CCC(=O)NC1CCCc2c1[nH]c1c(Cl)cccc21 (stereo not given),–,inactive: -0.858%
Cc1ccc(CCNC(=O)c2nn(C)c3c2CSc2ccccc2-3)cc1,"inconclusive: 1.78 µM [inhibitor, partial curve, poor fit]",–
CCCCOc1ccc(CNC(=O)CN2CCSc3ccccc32)cc1,"inconclusive: 31.6 µM [inhibitor, single point]",–
COCCC1(CO)CCCN(c2ncc(F)c(N3CCCC3)n2)C1 (stereo not given),"inconclusive: 39.8 µM [inhibitor, single point]",–
O=C(NCc1ccc(F)cc1)c1nc(-c2ccc(F)cc2)c2cnccn12,active: 35.5 µM,–

Structure (SMILES),Potency,"activity change, negative = inhibition"
COc1ccc(Br)cc1/C=C(\C#N)c1nc2ccccc2[nH]1,"inconclusive: 15.8 µM [inhibitor, partial curve, poor fit]",–
Cn1c(=O)c2c(-c3ccc(Br)cc3)n(CCc3ccccc3)cc2n(C)c1=O,"inconclusive: 3.55 µM [inhibitor, full curve, poor fit]",–
N#Cc1ccc(CN2CCC3(CNc4ccccc4[S+](=O)([O-])N3)C2)cc1 (stereo not given),"inconclusive: 28.2 µM [inhibitor, partial curve, poor fit]",–
CC(=O)c1c(OS(=O)(=O)c2ccccc2-c2ccccc2)ccc2c(C)cc(=O)oc12,–,inactive: -29.7%
COc1ccccc1N1CCN(C(=O)c2coc(=O)c(Br)c2)CC1,"inconclusive: 25.1 µM [inhibitor, partial curve, poor fit]",–
Cc1ccc(Cl)cc1NC(=O)CN1CCCN(c2ccc(C(F)(F)F)cn2)CC1,–,inactive: -20.3%
CCN(Cc1ccccc1)C(=O)CCc1c(C)nc2c(c(C)nn2-c2ccc(C)c(C)c2)c1C,"inconclusive: 2 µM [inhibitor, partial curve, poor fit]",–
COCC(=O)N1CC[C@H](c2nc3ccc(C(F)(F)F)cc3[nH]2)C1,"inconclusive: 39.8 µM [inhibitor, single point]",–
Cc1nn2cc(CCNC(=O)C3NCCc4[nH]cnc43)nc2s1 (stereo not given),"inconclusive: 3.98 µM [inhibitor, partial curve, poor fit]",–
Cc1c(-c2ccccc2)nn2c1NC(=O)CC2C(=O)Nc1ccc2c(c1)OCO2 (stereo not given),–,inactive: -6.84%
CCC(Sc1nc2ncccc2[nH]1)C(=O)Nc1ccc(C)c(Cl)c1 (stereo not given),–,inactive: 0.346%
CN(C)c1ccc2ncc(Nc3ccc(Cl)cn3)n2n1,active: 35.5 µM,–
COc1ccc(NC(=O)CCn2nc(-c3ccc(Cl)cc3)c3ccccc3c2=O)cc1C(N)=O,–,inactive: 16.7%
COc1ccc(C)cc1NC(=O)c1cc(-c2ccc(C)o2)nc2ccccc12,"inconclusive: 22.4 µM [inhibitor, partial curve, poor fit]",–
Cc1ccccc1C(=O)Nc1nc2nc(-c3ccccc3)cc(=O)n2[nH]1,"inconclusive: 39.8 µM [inhibitor, single point]",–
CCNC(=O)C(C)NC(=O)c1cc(C(C)C)nc2c1cnn2C(C)C (stereo not given),"inconclusive: 31.6 µM [inhibitor, partial curve, poor fit]",–
Cc1ccccc1S(=O)(=O)N1CCC(CCC(=O)N2CCc3ccccc3C2)CC1,"inconclusive: 31.6 µM [inhibitor, single point]",–
CC1(C(=O)N2CCN(c3ccccn3)CC2)CCOCC1,active: 112 µM,–
O=C(N[C@@H]1CCC[C@@H]1C(=O)NCCc1ccc(Cl)cc1)c1ccncc1,–,inactive: 3.5%
O=C1c2cnc(-c3cccc(CO)c3)nc2OCCN1Cc1ccccc1,–,inactive: 0.0762% [at 86.2 µM]
CCNC(=O)CNC(=O)c1cc(Br)ccc1F,–,inactive: -4.39%
O=C(CCN1CCc2ccccc2C(O)(c2ccccc2)C1)c1ccc2c(c1)OCCO2 (stereo not given),"inconclusive: 2 µM [inhibitor, full curve, poor fit]",–
